Assay results: the RNAGym collection of RNA variant scans (doi:10.1073/pnas.2313332121)
Variants at the background level are over-represented here.

B1: TPR 5TU (parent)
chain: GGAUCUUCUCGAUCUAACAAAAAAGACAAAUCUGCCACAAAGCUUGAGAGCAUCUUCGGAUGCAGAGGCGGCAGCCUUCGGUGGCGCGAUAGCGCCAACGUUCUCAACUAUGACACGCAAAACGCGUGCUCCGUUGAAUGGAGUUUAUCAUG

Variants of: B1
Assay: polymerase ribozyme fitness, log enrichment relative to wild type (log ratio); higher = more active; in vitro selection for triplet polymerase activity
In short: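 Each subunit of a heterodimeric triplet polymerase ribozyme was mutagenized into a library by PCR, transcribed, and subjected to one round of in vitro selection, run in triplicate. Libraries were annealed with a biotinylated primer, the partner subunit and triplets, incubated frozen at −7 °C, and extended constructs were gel-excised, captured on streptavidin beads and recovered by RT-PCR. Input and output libraries were sequenced on Illumina, keeping genotypes with ≥10 input reads and ≥1 read per output. Fitness is log base 2 of genotype enrichment divided by wild-type enrichment, from inverse-variance-weighted replicate averages.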

Variant	polymerase ribozyme fitness (log ratio)
GGAUCUUCUCGAUCUAACAAAAAAGACAAAUCUGCCACAAAACUUGAGAGCAUCUUCGGAUGCAGAGGCGGCAGCCUUCGGUGGCGCGAUAGCGCCAACAUUCUCAACUAUGACACGCAAAACGCGUGCUCCGGUGAAUGGAGUUUAUCAUG [G42A G100A U134G]	≤ -4.2
GGAUCUUCUCGAUCUAACAAAAAAGACAAAUCUGCCACAAAACUUGAGAGCAUCUUCGGAUGCAGAGGCGGCAGCCUUCGGUGGCACGAUAGCGCCAACGGUCUCAACUAUGACAGGCAAAACGCGUGCUCCGUUGAAUGGAGUUUAUCAUG [G42A G86A U101G C116G]	≤ -4.2
GGAUCUUCUCGAUCUAACAAAAAAGACAAAUCUGCCACAAAACUUGAGAGCAUCUUCGGAUGCAGAGGCGGCAGCCUUCGGUGGCGCGAUAGCGCCAACGUUCUCAACUACGACACGCAAAACGCGUGCUCCGUUGAAUGGAGUUUAUCAUG [G42A U111C]	≤ -4.2
GGAUCUUCUCGAUCUAACAAAAAAGACAAAUCUGCCACAAAACUUGAGAGCAUCUUCGGAUGCAGAGGCGGCAGCCUUCGGUGACGCGAUAGCGCCGACGUUCUCAACUAUGACACGCAAAACGCGUGCUCCGUUGAAUGGAGUUUAUCAUG [G42A G84A A97G]	≤ -4.2
GGAUCUUCUCGAUCUAACAAAAAAGACAAAUCUGCCACAAAACUUGAGAGCAUCUUCGAAUGCAGAGGCGGCAUCCUUCGGUGGCGCGAUAGCGCGAACGUUCUCAACUAUGACACGCAAAACGCGUGCUCCGUUGGAUGGAGUUUAUCAUG [G42A G59A G74U C96G A137G]	≤ -4.2
GGAUCUUCUCGAUCUAACAAAAAAGACAAAUCUGCCACAAAACUAGUGAACAUCUUCGGAUGCGGAGGCGGCAGCCUUCGGUGGCGCGUUAGGGCCAACGUUCUCAACUAUGACACGCAAAACGCGUGCUCCGUUCAAUGGAGUUUAUCAUG [G42A U45A A47U G50A A64G A89U C93G G136C]	≤ -4.2
GGAUCUUCUCGAUCUAACAAAAAAGACAAAUCUGCCACAAAACUUGAGAGCAUCUUCGGAUGCAGAGGCGGCAGCCUUCGGUGGCGCGAUAGCGCCAACGUUCUCAACUAUGACACGCAAAACGCGUGCUCCGUUGAAUAGAGUUUAUCAUG [G42A G140A]	≤ -4.2
GGAUCUUCUCGAUCUAACAAAAAAGACAAAUCUGCCACAAAACUUGAGAGCAUCUUCGGAUGCAGAGGCGGCAGCCUUCGGUGGCGCGAUAGCAACAACGUUCUCAACUAUGACACGCAAUACGCGUGCUCCGUUGAAUGGAGUUUAUCAUG [G42A G94A C95A A121U]	≤ -4.2
GGAUCUUCUCGAUCUAACAAAAAAGACAAAUCUGCCACAAAACAUGAGAGCAUCUUCGGUUGCAGGAGCGGCAGCCUUCGGUGGCGCGAUAGCGCCUACGUUCUCAACUAUGACACGCAAAACGCGUGCUCCGUUGAAUGGUGUUUAUCAUG [G42A U44A A60U A66G G67A A97U A142U]	≤ -4.2
GGAUCUUCUCGAUCUAACAAAAAAGACAAAUCUGCCACAAAACUUGAGAGCAAAUUGGGAUGCAGAGGCGGCAGCCUUCGGUGGCGCGAUAGCGCCAACGUCGUCAACUAUGACACGGAAAACGCGUGCUCCGUUGAAUGGAGUUUAUCAUG [G42A U53A C54A C57G U102C C103G C118G]	≤ -4.2
GGAUCUUCUCGAUCUAACAAAAAAGACAAAUCUGCCACAAAACUUGAGAGCAUCUACGGAUGCAGAGGCGGCAGCCUUCGGUGGCGCGAUAGCGUCAACGUUCUCAACUAGGACACGCAAAACGCGUGCUCCGUUGAAUGGAGUUUAUCAUG [G42A U56A C95U U111G]	-4
GGAUCUUCUCGAUCUAACAAAAAAGACAAAUCUGCCACAAAACUUGAGAGCAACUUCGGAUGCACAGGCAGCAGCCUUCGGUGGCGGGAUAGCGCCAACGUUCUCAACUAUGACACGCAAAACGCGUGCUCCGUUGAAUGGAGUUAAUCAUG [G42A U53A G65C G70A C87G U146A]	≤ -4.2
GGAUCUUCUCGAUCUAACAAAAAAGACAAAUCUGCCACAAAACUUGAGAACAUCUUCGGAUGCAGAGGCGGCAGCCUUCGGUGGCGCGAGAGCGCCAACGUUCUCAACUAUGACAUGCAAAACGCGUGCUCCGUUGAAUGGAGUUUAUCAUG [G42A G50A U90G C116U]	≤ -4.2
GGAUCUUCUCGAUCUAACAAAAAAGACAAAUCUGCCACAAAACUUGAGAGCAUCUUCGGAUGCAGAGGCGGCAGCCUUCGGUGGCUCGAUAGCGCCAACGUUCUCAACUAUGACACGCAAAACGCGUGCUCCGUUGAAUGAAGUUUAUCAUG [G42A G86U G141A]	≤ -4.2
GGAUCUUCUCGAUCUAACAAAAAAGACAAAUCUGCCACAAAACUUGAGAGCAUCUUCGGAUACAGAGGCGGCAGCCUUCGGUGGCGCGCUAGGGCCAACGUUCUUAACUAUGACACGCAAAACGCAUGCUCCGUUGAAUGGAGUUUACCAUG [G42A G62A A89C C93G C105U G126A U148C]	≤ -4.2
GGAUCUUCUCGAUCUAACAAAAAAGACAAAUCUGCCACAAAACUUGAGAGCAUCAUCGGAUGCAGAGGCGGCAGCCUUCGGUAGCGCGAUAGCCCCAACUUUCUCAACUAUGACACGCAAAACGCGUGCUCCGUUGAAUGGAGUUUAUCAUG [G42A U55A G83A G94C G100U]	≤ -4.2
GGAUCUUCUCGAUCUAACAAAAAAGACAAAUCUGCCACAAAACUUGAGAGCAUCUUCGGAUGCAGAUGCGGCAGCCUUCGGUGGCGCGAUAGCGCCAAUGUUCUCAACUAUGAUACGUAAAACGCUUGCUCCGUUGAAUGGACUUUAUCAUG [G42A G67U C99U C114U C118U G126U G143C]	≤ -4.2
GGAUCUUCUCGAUCUAACAAAAAAGACAAAUCUGCCACAAAACUUGAGAGCAUCUUCCGAUGCAGAUGCGGCAGCCUUCGGUGGCACGAUAGCGCCAACGUUCUCAAGUAUGACACGCAAAACGCGUGCUCCGUUGAAUGGAGUUUAUCAUG [G42A G58C G67U G86A C108G]	≤ -4.2
GGAUCUUCUCGAUCUAACAAAAAAGACAAAUCUGCCACAAAACUUGAGAGCAUCUUCGGAUGCAGAGGCGGCAGCCUUCGGUGGCGCGAUAGCUCCAACGUUCUCAACUAUGACACGUAAAACGCGUGCUCCGUUGAAUGAAGUUUAUCUUG [G42A G94U C118U G141A A150U]	≤ -4.2
